According to patent US12043670B2, “Anti-BCMA antibody-drug conjugates and methods of use” (Eisai R&D Management Co., Ltd., priority 2020, dated 2024):

B1: AB200-R1a-Fab_Vk36 (antibody)
heavy: QVQLVQSGAEVKKPGSSVKVSCKASGGTFSNYWMHWVRQAPGQGLEWMGATYRGHSDTYYNQKFKGRVTITADKSTSTAYMELSSLRSEDTAVYYCARGAIYHGYDVLDNWGQGTLVTVSSASTKGPSVFPLAPSSKSTSGGTAALGCLVKDYFPEPVTVSWNSGALTSGVHTFPAVLQSSGLYSLSSVVTVPSSSLGTQTYICNVNHKPSNTKVDKKVEPKSC
light: DIQMTQSPSSLSASVGDRVTITCSASQDLSNYLNWYQQKPGKAPKLLIYYTSNLQSGVPSRFSGSGSGTDFTLTISSLQPEDFATYYCQQYRRLPWTFGQGTKLEIKRTVAAPSVFIFPPSDEQLKSGTASVVCLLNNFYPREAKVQWKVDNALQSGNSQESVTEQDSKDSTYSLSSTLTLSKADYEKHKVYACEVTHQGLSSPVTKSFNRGEC
B2: AB200-R1a-Fab(hCDR1) (antibody)
heavy: QVQLVQSGAEVKKPGSSVKVSCKASGGTFSNYWMHWVRQAPGQGLEWMGATYRGHSDTYYNQKFKGRVTITADKSTSTAYMELSSLRSEDTAVYYCARGAIYHGYDVLDNWGQGTLVTVSSASTKGPSVFPLAPSSKSTSGGTAALGCLVKDYFPEPVTVSWNSGALTSGVHTFPAVLQSSGLYSLSSVVTVPSSSLGTQTYICNVNHKPSNTKVDKKVEPKSC
light: DIQMTQSPSSLSASVGDRVTITCRASQSISSYLNWYQQKPGKAPKLLIYYTSNLHSGVPSRFSGSGSGTDFTLTISSLQPEDFATYYCQQYRKLPWTFGQGTKLEIKRTVAAPSVFIFPPSDEQLKSGTASVVCLLNNFYPREAKVQWKVDNALQSGNSQESVTEQDSKDSTYSLSSTLTLSKADYEKHKVYACEVTHQGLSSPVTKSFNRGEC
B3: AB200-R1a-Fab(hCDR2) (antibody)
heavy: QVQLVQSGAEVKKPGSSVKVSCKASGGTFSNYWMHWVRQAPGQGLEWMGATYRGHSDTYYNQKFKGRVTITADKSTSTAYMELSSLRSEDTAVYYCARGAIYHGYDVLDNWGQGTLVTVSSASTKGPSVFPLAPSSKSTSGGTAALGCLVKDYFPEPVTVSWNSGALTSGVHTFPAVLQSSGLYSLSSVVTVPSSSLGTQTYICNVNHKPSNTKVDKKVEPKSC
light: DIQMTQSPSSLSASVGDRVTITCSASQDISNYLNWYQQKPGKAPKLLIYAASSLQSGVPSRFSGSGSGTDFTLTISSLQPEDFATYYCQQYRKLPWTFGQGTKLEIKRTVAAPSVFIFPPSDEQLKSGTASVVCLLNNFYPREAKVQWKVDNALQSGNSQESVTEQDSKDSTYSLSSTLTLSKADYEKHKVYACEVTHQGLSSPVTKSFNRGEC
B4: AB200-R1a-Fab(hCDR3) (antibody)
heavy: QVQLVQSGAEVKKPGSSVKVSCKASGGTFSNYWMHWVRQAPGQGLEWMGATYRGHSDTYYNQKFKGRVTITADKSTSTAYMELSSLRSEDTAVYYCARGAIYHGYDVLDNWGQGTLVTVSSASTKGPSVFPLAPSSKSTSGGTAALGCLVKDYFPEPVTVSWNSGALTSGVHTFPAVLQSSGLYSLSSVVTVPSSSLGTQTYICNVNHKPSNTKVDKKVEPKSC
light: DIQMTQSPSSLSASVGDRVTITCSASQDISNYLNWYQQKPGKAPKLLIYYTSNLHSGVPSRFSGSGSGTDFTLTISSLQPEDFATYYCQQSYSTPWTFGQGTKLEIKRTVAAPSVFIFPPSDEQLKSGTASVVCLLNNFYPREAKVQWKVDNALQSGNSQESVTEQDSKDSTYSLSSTLTLSKADYEKHKVYACEVTHQGLSSPVTKSFNRGEC
B5: AB200-R1a-Fab_Vk2 (antibody)
heavy: QVQLVQSGAEVKKPGSSVKVSCKASGGTFSNYWMHWVRQAPGQGLEWMGATYRGHSDTYYNQKFKGRVTITADKSTSTAYMELSSLRSEDTAVYYCARGAIYHGYDVLDNWGQGTLVTVSSASTKGPSVFPLAPSSKSTSGGTAALGCLVKDYFPEPVTVSWNSGALTSGVHTFPAVLQSSGLYSLSSVVTVPSSSLGTQTYICNVNHKPSNTKVDKKVEPKSC
light: DIQMTQSPSSLSASVGDRVTITCSASQEVSNYLNWYQQKPGKAPKLLIYYTSNLHSGVPSRFSGSGSGTDFTLTISSLQPEDFATYYCQEYRKLPWTFGQGTKLEIKRTVAAPSVFIFPPSDEQLKSGTASVVCLLNNFYPREAKVQWKVDNALQSGNSQESVTEQDSKDSTYSLSSTLTLSKADYEKHKVYACEVTHQGLSSPVTKSFNRGEC
B6: AB200-R1a-Fab_Vk3 (antibody)
heavy: QVQLVQSGAEVKKPGSSVKVSCKASGGTFSNYWMHWVRQAPGQGLEWMGATYRGHSDTYYNQKFKGRVTITADKSTSTAYMELSSLRSEDTAVYYCARGAIYHGYDVLDNWGQGTLVTVSSASTKGPSVFPLAPSSKSTSGGTAALGCLVKDYFPEPVTVSWNSGALTSGVHTFPAVLQSSGLYSLSSVVTVPSSSLGTQTYICNVNHKPSNTKVDKKVEPKSC
light: DIQMTQSPSSLSASVGDRVTITCSASQDISNYINWYQQKPGKAPKLLIYYTSNMHSGVPSRFSGSGSGTDFTLTISSLQPEDFATYYCQQYRKLPWSFGQGTKLEIKRTVAAPSVFIFPPSDEQLKSGTASVVCLLNNFYPREAKVQWKVDNALQSGNSQESVTEQDSKDSTYSLSSTLTLSKADYEKHKVYACEVTHQGLSSPVTKSFNRGEC
B7: AB200-R1a-Fab_Vk4 (antibody)
heavy: QVQLVQSGAEVKKPGSSVKVSCKASGGTFSNYWMHWVRQAPGQGLEWMGATYRGHSDTYYNQKFKGRVTITADKSTSTAYMELSSLRSEDTAVYYCARGAIYHGYDVLDNWGQGTLVTVSSASTKGPSVFPLAPSSKSTSGGTAALGCLVKDYFPEPVTVSWNSGALTSGVHTFPAVLQSSGLYSLSSVVTVPSSSLGTQTYICNVNHKPSNTKVDKKVEPKSC
light: DIQMTQSPSSLSASVGDRVTITCTATQDITNYLNWYQQKPGKAPKLLIYYTSNLHSGVPSRFSGSGSGTDFTLTISSLQPEDFATYYCQQYRKLPWTFGQGTKLEIKRTVAAPSVFIFPPSDEQLKSGTASVVCLLNNFYPREAKVQWKVDNALQSGNSQESVTEQDSKDSTYSLSSTLTLSKADYEKHKVYACEVTHQGLSSPVTKSFNRGEC
B8: AB200-R1a-Fab_Vk5 (antibody)
heavy: QVQLVQSGAEVKKPGSSVKVSCKASGGTFSNYWMHWVRQAPGQGLEWMGATYRGHSDTYYNQKFKGRVTITADKSTSTAYMELSSLRSEDTAVYYCARGAIYHGYDVLDNWGQGTLVTVSSASTKGPSVFPLAPSSKSTSGGTAALGCLVKDYFPEPVTVSWNSGALTSGVHTFPAVLQSSGLYSLSSVVTVPSSSLGTQTYICNVNHKPSNTKVDKKVEPKSC
light: DIQMTQSPSSLSASVGDRVTITCSASQDISSYLNWYQQKPGKAPKLLIYYTSNLHSGVPSRFSGSGSGTDFTLTISSLQPEDFATYYCQQYRSTPWTFGQGTKLEIKRTVAAPSVFIFPPSDEQLKSGTASVVCLLNNFYPREAKVQWKVDNALQSGNSQESVTEQDSKDSTYSLSSTLTLSKADYEKHKVYACEVTHQGLSSPVTKSFNRGEC
B9: AB200-R1a-Fab_Vk6: AB200_Fab (D99H) heavy chain fragment paired with AB200 kappa variant 6 (round 1) (antibody)
heavy: QVQLVQSGAEVKKPGSSVKVSCKASGGTFSNYWMHWVRQAPGQGLEWMGATYRGHSDTYYNQKFKGRVTITADKSTSTAYMELSSLRSEDTAVYYCARGAIYHGYDVLDNWGQGTLVTVSSASTKGPSVFPLAPSSKSTSGGTAALGCLVKDYFPEPVTVSWNSGALTSGVHTFPAVLQSSGLYSLSSVVTVPSSSLGTQTYICNVNHKPSNTKVDKKVEPKSC
light: DIQMTQSPSSLSASVGDRVTITCSATQDISNYLNWYQQKPGKAPKLLIYFTSNLQSGVPSRFSGSGSGTDFTLTISSLQPEDFATYYCQQYRKLPWTFGQGTKLEIKRTVAAPSVFIFPPSDEQLKSGTASVVCLLNNFYPREAKVQWKVDNALQSGNSQESVTEQDSKDSTYSLSSTLTLSKADYEKHKVYACEVTHQGLSSPVTKSFNRGEC
B10: AB200-R1a-Fab_Vk7 (antibody)
heavy: QVQLVQSGAEVKKPGSSVKVSCKASGGTFSNYWMHWVRQAPGQGLEWMGATYRGHSDTYYNQKFKGRVTITADKSTSTAYMELSSLRSEDTAVYYCARGAIYHGYDVLDNWGQGTLVTVSSASTKGPSVFPLAPSSKSTSGGTAALGCLVKDYFPEPVTVSWNSGALTSGVHTFPAVLQSSGLYSLSSVVTVPSSSLGTQTYICNVNHKPSNTKVDKKVEPKSC
light: DIQMTQSPSSLSASVGDRVTITCSASQDISNFLNWYQQKPGKAPKLLIYYTSNLHSGVPSRFSGSGSGTDFTLTISSLQPEDFATYYCQQFRKMPWTFGQGTKLEIKRTVAAPSVFIFPPSDEQLKSGTASVVCLLNNFYPREAKVQWKVDNALQSGNSQESVTEQDSKDSTYSLSSTLTLSKADYEKHKVYACEVTHQGLSSPVTKSFNRGEC
B11: AB200-R1a-Fab_Vk8 (antibody)
heavy: QVQLVQSGAEVKKPGSSVKVSCKASGGTFSNYWMHWVRQAPGQGLEWMGATYRGHSDTYYNQKFKGRVTITADKSTSTAYMELSSLRSEDTAVYYCARGAIYHGYDVLDNWGQGTLVTVSSASTKGPSVFPLAPSSKSTSGGTAALGCLVKDYFPEPVTVSWNSGALTSGVHTFPAVLQSSGLYSLSSVVTVPSSSLGTQTYICNVNHKPSNTKVDKKVEPKSC
light: DIQMTQSPSSLSASVGDRVTITCSASQDISNYLNWYQQKPGKAPKLLIYYTSNLQSGVPSRFSGSGSGTDFTLTISSLQPEDFATYYCHQSRKLPWTFGQGTKLEIKRTVAAPSVFIFPPSDEQLKSGTASVVCLLNNFYPREAKVQWKVDNALQSGNSQESVTEQDSKDSTYSLSSTLTLSKADYEKHKVYACEVTHQGLSSPVTKSFNRGEC
B12: AB200-R1a-Fab_Vk9 (antibody)
heavy: QVQLVQSGAEVKKPGSSVKVSCKASGGTFSNYWMHWVRQAPGQGLEWMGATYRGHSDTYYNQKFKGRVTITADKSTSTAYMELSSLRSEDTAVYYCARGAIYHGYDVLDNWGQGTLVTVSSASTKGPSVFPLAPSSKSTSGGTAALGCLVKDYFPEPVTVSWNSGALTSGVHTFPAVLQSSGLYSLSSVVTVPSSSLGTQTYICNVNHKPSNTKVDKKVEPKSC
light: DIQMTQSPSSLSASVGDRVTITCSASQEISNYLNWYQQKPGKAPKLLIYATSNLHSGVPSRFSGSGSGTDFTLTISSLQPEDFATYYCQQYRKLPWSFGQGTKLEIKRTVAAPSVFIFPPSDEQLKSGTASVVCLLNNFYPREAKVQWKVDNALQSGNSQESVTEQDSKDSTYSLSSTLTLSKADYEKHKVYACEVTHQGLSSPVTKSFNRGEC

Test: ThermoFluor thermostability (Tm)
Format: physicochemical
Conditions: Light chain screening Round 1; Fab, paired with heavy chain AB200_D99H
In the case of B1, the Tm is reported as 81.26 °C.
In the case of B2, the Tm is reported as 82.81 °C.
In the case of B3, the Tm is reported as 84.86 °C.
With B4 the Tm was 84.76 °C.
Work on B5 yielded a Tm of 75.43 °C.
For B6, the Tm was 80.00 °C.
In the case of B7, the Tm is reported as 82.26 °C.
B8 showed a Tm of 81.10 °C.
Molecule B9 has a Tm of 81.31 °C.
B10 gave a Tm of 84.48 °C.
In the case of B11, the Tm is reported as 83.90 °C.
B12 gave a Tm of 84.44 °C.
